The list shows a part of the results. At the low end of the ranking, values are background and their order means little.

In this assay the target is T1, GST-Rok-C97-191 (UniProt O34857).
T1 sequence: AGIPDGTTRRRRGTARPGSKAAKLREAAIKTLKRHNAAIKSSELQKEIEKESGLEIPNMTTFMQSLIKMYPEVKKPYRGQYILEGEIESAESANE
Briefly: protein binding microarray.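 Also: rank score from −0.5 (least bound) to 0.5 (best bound).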 The settings on record: Rok is a gene silencer of Bacillus subtilis; high values mean tight binding; most listed sequences are background and not binding sites; double strand, one strand shown.
The sequence ATATTCTC displayed a binding signal of 0.327 E-score.
Take TAGGCAGA: the binding signal turned out to be 0.0287 E-score.
Under TACAAAAA stands -0.00375 E-score; under ACTCCATA, 0.12 E-score.
The figure for CCGATCTC is -0.0877 E-score; for TTCGACAA it is 0.172 E-score; for AGGAAGGC it is -0.202 E-score.
The figure for ACACGACC is -0.0303 E-score.
With AGGATACT, the binding signal is 0.0521 E-score.
Turning to ATGACGCC, the binding signal was -0.151 E-score.
In the case of ACCCCACC, the binding signal was -0.267 E-score.
ATTACTTC returned a binding signal of 0.28 E-score.
Turning to AATCCCGC, the binding signal came out at 0.00826 E-score.
For AATAAGCG, the binding signal is -0.0283 E-score.
For the sequence CCTCGGCG, the binding signal is -0.236 E-score.
In turn, CCGAACTA returned a binding signal of 0.283 E-score.
On to GACCAGTA, for which the binding signal is -0.136 E-score.
Under TCACCGGA stands -0.0782 E-score.
The sequence ACAGAAGT displayed a binding signal of 0.157 E-score.
Under AGGGATAT stands 0.117 E-score; under ACCAAATG, 0.12 E-score; under CTAGGACA, 0.0572 E-score.
In the case of AGAATCGG, the binding signal was 0.0769 E-score.
ATGCAGAA showed a binding signal of 0.195 E-score.
In the case of CCACGACA, the binding signal is -0.254 E-score.
GTTCTAAA: the binding signal is -0.072 E-score.
Take ACCCTGAT: the binding signal was -0.17 E-score.
CTGTATTC: the binding signal is -0.119 E-score.
Turning to GCACTAGA, the binding signal was 0.0446 E-score.
For ATTAGCTG, the binding signal came to 0.285 E-score.
AAAACGAT had a binding signal of 0.0564 E-score.
CGTCTCGA: the binding signal was -0.212 E-score.
ACCTACCG displayed a binding signal of 0.148 E-score.
Under CATTAAAC stands -0.118 E-score.
With CTGGCCAA, the binding signal was -0.0242 E-score.
For the sequence GGCGTAAA, the binding signal is -0.0507 E-score.
Under GAAGTAAC stands 0.08 E-score.
On to ATACAGCC, for which the binding signal is -0.129 E-score.
Take TAAATGGA: the binding signal is 0.0913 E-score.
Consider AGGCCGGA, for which the binding signal is -0.102 E-score.
Under ACGGATAC stands -0.124 E-score; under GCATGCAA, -0.0249 E-score.
Turning to AGCGAGTG, the binding signal is -0.209 E-score.
In turn, TAATTCGA displayed a binding signal of 0.207 E-score.
As for AAGTTCTC, the binding signal amounted to 0.106 E-score.
Sequence CAGTGATA returned a binding signal of 0.123 E-score.
Consider ATCCACGA, for which the binding signal came out at 0.0799 E-score.
CCAAGTGA: the binding signal is -0.0437 E-score.
Under CGCTAGGC stands 0.00451 E-score; under GTTAGTAA, 0.163 E-score; under GACTCTGC, -0.28 E-score.
As for GCCAGTAA, the binding signal was -0.198 E-score.
In turn, GAGTAAAA registered a binding signal of 0.269 E-score.
Turning to CAGAATAC, the binding signal was -0.0359 E-score.
For the sequence CAAAGTGG, the binding signal was -0.00341 E-score.
GAAAACCC: the binding signal is -0.0637 E-score.
ATTTTGAG registered a binding signal of 0.058 E-score.
Take ACCTAACC: the binding signal was -0.123 E-score.
The figure for CTTTTGTA is 0.241 E-score; for ACAATAGG it is 0.238 E-score; for TCACCCGA it is -0.093 E-score.
CTCGAAAA: the binding signal is -0.124 E-score.
Consider CTGGGTTC, for which the binding signal is -0.0789 E-score.
The figure for GACAGCAC is -0.165 E-score; for GAGCGCAA it is -0.0463 E-score.
As for GTTATAGA, the binding signal stood at 0.128 E-score.
On to CTAAATCA, for which the binding signal stood at 0.0393 E-score.
Under CCCGACCC stands -0.31 E-score; under CTGCTGGC, -0.199 E-score.
For AGGGTCAG, the binding signal was -0.216 E-score.
CCGACAAA: the binding signal is -0.148 E-score.
CTACGACA returned a binding signal of 0.104 E-score.
On to GAAGCCAC, for which the binding signal was -0.199 E-score.
In the case of AAACGGTT, the binding signal is -0.0305 E-score.
In turn, GTATGCGA registered a binding signal of 0.013 E-score.
Turning to CAGTAGCC, the binding signal is -0.0922 E-score.
Turning to CGTCAGGC, the binding signal is -0.192 E-score.
ACTTCTGG showed a binding signal of 0.0906 E-score.
Under GGGGAAAC stands 0.0197 E-score; under GCGCCCAA, -0.261 E-score; under ACCACGTC, -0.195 E-score.
As for CCTGGTTC, the binding signal was -0.4 E-score.
Turning to CAACGCTC, the binding signal is -0.215 E-score.
Consider CAACGAAG, for which the binding signal is -0.0928 E-score.
The figure for GAAACGAC is -0.198 E-score.
Turning to ACCACTGA, the binding signal stood at 0.0869 E-score.
Take CGGCCTAA: the binding signal was -0.152 E-score.
With CCTAGAGA, the binding signal is -0.0834 E-score.
Consider GGTATTCA, for which the binding signal was 0.0513 E-score.
Take ATGCCCCG: the binding signal was -0.0948 E-score.
As to CTAGACGA, the binding signal came out at 0.024 E-score.
For the sequence CTGAGACC, the binding signal was -0.227 E-score.
Under CATGTCCC stands -0.16 E-score.
The figure for GACATTAC is 0.0945 E-score.
Regarding CCGCACGG, the binding signal is -0.178 E-score.
Regarding AGACCTAC, the binding signal was -0.0941 E-score.
Consider CCTCTAGC, for which the binding signal is -0.145 E-score.
Take AGGTACAG: the binding signal is 0.077 E-score.
In the case of CATCAGCC, the binding signal was -0.19 E-score.
Consider AAGATGCG, for which the binding signal was -0.081 E-score.
The figure for AATTTTTG is 0.175 E-score; for CACTTACA it is 0.0869 E-score.
AATGGGTG: the binding signal worked out at 0.133 E-score.
In the case of GCCATGCA, the binding signal was -0.208 E-score.
ACTCCAGT displayed a binding signal of 0.0136 E-score.
The figure for CGCCACCA is -0.256 E-score; for CCAATTGG it is -0.196 E-score; for GATTACCA it is 0.14 E-score.
With CTGACAAC, the binding signal came out at 0.16 E-score.
In the case of CAGGTCGA, the binding signal was -0.0908 E-score.

Values taken from paper PMC6212790.
